Measured values as given in article PMC4336329 (PLoS ONE, 2015).
Among all 310,000 compounds or so, about 14,000 (4.5%) showed an effect of 50% or more. The effect is printed as a negative number. The list shows a part of the results.

biological target: human ether-à-go-go-related gene (hERG) potassium channel (human, UniProt Q12809); experiment: primary screen, population patch clamp on CHO cells stably expressing hERG
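Also: peak tail current of the secondary pulse compared with the same well before compound.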

Sequence of human ether-à-go-go-related gene (hERG) potassium channel (Q12809 whole entry, looked up): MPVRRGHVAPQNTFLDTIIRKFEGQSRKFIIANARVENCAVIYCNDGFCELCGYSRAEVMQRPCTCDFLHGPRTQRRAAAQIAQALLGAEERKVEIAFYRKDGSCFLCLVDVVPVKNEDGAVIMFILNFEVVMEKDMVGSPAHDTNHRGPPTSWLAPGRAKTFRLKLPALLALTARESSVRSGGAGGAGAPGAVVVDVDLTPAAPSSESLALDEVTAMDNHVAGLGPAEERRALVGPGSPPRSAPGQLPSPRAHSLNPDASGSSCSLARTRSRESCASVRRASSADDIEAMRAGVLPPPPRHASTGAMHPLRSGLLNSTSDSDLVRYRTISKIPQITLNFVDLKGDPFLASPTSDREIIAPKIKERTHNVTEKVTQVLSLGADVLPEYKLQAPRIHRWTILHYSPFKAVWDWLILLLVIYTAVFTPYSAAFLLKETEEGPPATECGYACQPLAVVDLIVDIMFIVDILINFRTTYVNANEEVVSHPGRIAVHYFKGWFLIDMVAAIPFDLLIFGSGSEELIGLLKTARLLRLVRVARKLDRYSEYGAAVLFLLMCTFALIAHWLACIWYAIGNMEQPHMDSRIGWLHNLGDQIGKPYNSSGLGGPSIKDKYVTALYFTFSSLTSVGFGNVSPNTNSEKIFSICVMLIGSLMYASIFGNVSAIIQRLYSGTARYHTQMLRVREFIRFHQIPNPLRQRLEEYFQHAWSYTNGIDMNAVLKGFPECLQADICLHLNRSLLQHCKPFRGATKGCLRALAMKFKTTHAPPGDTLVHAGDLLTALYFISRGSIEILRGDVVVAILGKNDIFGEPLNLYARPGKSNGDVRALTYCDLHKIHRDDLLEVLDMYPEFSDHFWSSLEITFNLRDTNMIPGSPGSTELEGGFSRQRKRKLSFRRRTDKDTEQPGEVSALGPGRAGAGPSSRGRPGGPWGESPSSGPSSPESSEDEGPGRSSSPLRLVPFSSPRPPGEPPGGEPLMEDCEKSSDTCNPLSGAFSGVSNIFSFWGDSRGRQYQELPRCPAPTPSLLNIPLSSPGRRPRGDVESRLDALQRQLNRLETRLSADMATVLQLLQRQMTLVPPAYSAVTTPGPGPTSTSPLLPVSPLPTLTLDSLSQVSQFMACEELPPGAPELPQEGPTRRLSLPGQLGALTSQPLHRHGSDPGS

Row | Structure (SMILES) | hERG current change (%, negative = inhibition) at 10uM
1 | CN(C(=O)/C=C/c1ccc([N+](=O)[O-])s1)c1ccccc1 | -8.63%
2 | CC12CCC(=O)N1C(C(=O)Nc1ccccc1N1CCOCC1)CS2 (centres unmarked) | -5.99%
3 | Cc1c(Cl)cccc1NC(=O)C1CCCN(S(C)(=O)=O)C1 (centres unmarked) | 22%
4 | CC(=O)Nc1ccc2c(c1)CCCC2 | 5.05%
5 | CC1CCN(CCC(=O)Nc2nccs2)CC1 | 15.5%
6 | O=C(CN1C(=O)NC2(CCCC2)C1=O)OCc1cc(=O)n2cc(Br)ccc2n1 | 0.0178%
7 | OCCNCC12CC3CC(CC(C3)C1)C2 | 22.9%
8 | O=C(CCc1nnc2ccc(N3CCCC3)nn12)Nc1ccc(F)cc1F | 8.27%
9 | CCc1nc(SCC(=O)Nc2ccccc2C)n[nH]1 | 16.2%
10 | CCn1c(SCC(=O)Nc2cc(C)on2)nnc1-c1cccnc1 | 0.341%
11 | C[C@@H](NC(=O)c1ncn(Cc2ccccc2)c1C(=O)N[C@H](C)c1ccccc1)c1ccccc1 | 14.1%
12 | O=C(CNC(=S)N(CCCN1CCOCC1)Cc1cccs1)NCc1ccccc1Cl | -54.2%
13 | O=C(O)C(=O)/C(=C\c1ccc([N+](=O)[O-])cc1)c1ccc2ccccc2n1 | -19.6%
14 | O=C(COC(=O)c1ccco1)c1ccc(S(=O)(=O)N2CCCCC2)cc1 | 6.76%
15 | Cc1ccccc1OCc1nc2ccccc2c(=O)n1/N=C/c1cn[nH]c1-c1ccc(Br)cc1 | 15.8%
16 | CCOC(=O)c1[nH]c2ccccc2c1NC(=O)CN(C)C | 7.08%
17 | c1ccc(-c2ccc(-c3[nH]ncc3CN3CCC(N4CCSCC4)CC3)cc2)cc1 | -80.7%
18 | O=C(O)c1ccccc1C(=O)N1CC=C(c2ccccc2)CC1 | 3.44%
19 | O=C(CN(C(=O)c1csnn1)c1cccc(C(F)(F)F)c1)NC1CCCC1 | 4.49%
20 | CCOC(=O)c1c(-c2ccccc2Cl)csc1NC(=O)c1cc(S(=O)(=O)N2CCOCC2)ccc1C | 12.4%
21 | CC(C)(C)N(Cc1ccccc1)C(=O)COC(=O)Cn1cnc2ccccc2c1=O | -4.48%
22 | COC(=O)C(NS(=O)(=O)c1ccccc1Cl)c1ccccc1 (centres unmarked) | 3.81%

Row | Structure (SMILES) | hERG current change (%, negative = inhibition) at 10uM
23 | CC(=O)NC(Cc1cccc(C)c1)C(=O)NC1CCN(S(=O)(=O)c2ccccc2)CC1 (centres unmarked) | 2.86%
24 | Cc1ccc(SCC(=O)OCC(=O)NCCNC(=O)COC(=O)CSc2ccc(C)c(C)c2)cc1C | 6.56%
25 | COc1ccc(CN2CCC(C)CC2)cc1OCc1ccccc1 | -49.6%
26 | COc1cccc(NC(=S)N(CCCN2CCC(C)CC2)Cc2cccs2)c1 | -59.2%
27 | CCc1ccc(C(=O)NC(C(=O)NCC2CCCO2)C(C)C)cc1 (centres unmarked) | 15.1%
28 | CCOc1[nH]n(-c2ccccc2)c(=O)c1C=NCC(=O)OC | -18.8%
29 | O=C(NCc1ccco1)c1ccc2c(c1)N(Cc1ccc(Cl)cc1)CCS2 | -18%
30 | COc1cc(/C=C/C(=O)OCC(=O)NCC(=O)Nc2cccc(C)c2C)ccc1OC(F)F | -25.7%
31 | O=C(Cn1c(=O)oc2ccccc21)N1CCOCC1 | 15.4%
32 | Cc1c(NC(=O)/C(C#N)=C/c2ccc(-c3ccc(Cl)c(Cl)c3)o2)c(=O)n(-c2ccccc2)n1C | -4.97%
33 | C=CCN(CC=C)Cc1cc(=O)n2c(-c3ccccc3)csc2n1 | 0.138%
34 | CCOC(=O)[C@H]1[C@H]2COc3ccc(Cl)cc3[C@@H]2N2C(=O)c3ccc(F)cc3NC(=O)[C@@]12C | -3.63%
35 | COc1ccc(Cn2nnnc2C(c2ccc3ncccc3c2)N2CCN(C3CCCCC3)CC2)cc1 (centres unmarked) | -82.8%
36 | O=C(COc1ncnc2sccc12)Nc1ccc(F)cc1F | -3.82%
37 | Cc1cc(N2CCOCC2)c2c(N)cc(C)c(C)c2n1 | -44.9%
38 | CCCCNC(=O)c1ccc2c(c1)C(=O)N(Cc1ccncc1)C2=O | -12.5%
39 | COC(=O)C(NS(=O)(=O)c1cccc(S(=O)(=O)NC(C(=O)OC)c2ccccc2)c1)c1ccccc1 (centres unmarked) | -45.7%
40 | COc1ccccc1Nc1nc(C)c(C(=O)Nc2ccccc2)s1 | 10.3%
41 | CCC(C)[C@H](NC(=O)Nc1ccc(Oc2ccccc2)cc1)C(=O)O (some centres unmarked) | 17.1%
42 | S=c1[nH]nc(Cc2ccc(Cl)cc2)n1-c1ccc2c(c1)OCCO2 | 2.4%
43 | O=Cc1cn(Cc2ccc(Br)cc2)c2ccccc12 | 15%
44 | Cc1ccc(C2C(/C=C3/SC(=S)NC3=O)=C(c3cccs3)Oc3ccccc32)cc1 (centres unmarked) | 0.741%

Row | Structure (SMILES) | hERG current change (%, negative = inhibition) at 10uM
45 | CSc1ccc(/C=C/c2cc(=O)c3ccccc3[nH]2)cc1 | 3.9%
46 | CSc1nsc(SCC(=O)Nc2ccc(C(C)=O)cc2)n1 | -6.63%
47 | COc1cccc(NC(=O)C2CCN(S(=O)(=O)c3ccc4c(c3)C(C)(C)C(=O)N4C)CC2)c1 | 17.9%
48 | COc1ccc(S(=O)(=O)n2[nH]c(=O)c(CCO)c2C)c([N+](=O)[O-])c1 | 15.6%
49 | Cn1c(SCC(=O)NC(C)(C)C)nnc1-c1cnccn1 | 12.8%
50 | COc1ccc(F)c(-c2nc(CN3CCN(C(=O)c4ccco4)CC3)c(C)o2)c1 | -35.9%
51 | Cc1occc1C(=O)Nc1ccc(OCc2ccccc2)cc1 | 6.72%
52 | CC(=O)c1cccc(NC(=O)NN2CCN(C)CC2)c1 | 20.3%
53 | COc1ccc(CNC(=O)C2CCN(C(=O)c3sccc3-n3cccc3)CC2)cc1 | -9.56%
54 | COc1ccccc1NC(=O)CCc1c(C)nc2c(-c3ccc(F)cc3)c(C)nn2c1C | -20.3%
55 | O=S(=O)(c1ccc(SCCOc2ccc(F)cc2)nc1)N1CCCC1 | -5.19%
56 | O=C(COc1ccccc1F)NNC(=O)Cc1ccc(S(=O)(=O)N2CCOCC2)s1 | 1.34%
57 | O=C1CN(CC(=O)NC(=O)NCc2ccccc2)CCN1 | 9.71%
58 | CCOc1ccc(-c2nc(CCl)cs2)cc1OC.Cl | 16.2%
59 | C(=C\c1ccncc1)/c1ccncc1 | -9.01%
60 | COc1ccc(NS(=O)(=O)c2ccc(-n3cnnn3)cc2)cc1OC | -4.87%
61 | COc1ccc(OC)c(-n2c(C)nc3cc(C(=O)O)ccc32)c1 | 1.96%
62 | CC(CCC(C)OC(=O)c1ccccc1C(=O)O)OC(=O)c1ccccc1C(=O)O (centres unmarked) | 21.1%
63 | Cc1cccc(-n2c(O)c(/C=C/C=Nc3ccccc3)c(=O)[nH]c2=O)c1 | -9.75%
64 | O=C(CCN1C(=O)c2ccccc2S1(=O)=O)Nc1cc(Cl)ccc1Cl | 1.66%
65 | O=C(CSc1nnc(CNC(=O)c2ccccc2F)o1)Nc1ccc2c(c1)OCO2 | -5.97%
66 | COC(=O)c1ccc(OC)cc1OCC(=O)N1CCN(c2ccc(F)cc2)CC1 | -33%

Row | Structure (SMILES) | hERG current change (%, negative = inhibition) at 10uM
67 | COc1ccc(CNC(=O)CCSCc2ccccc2Cl)c(OC)c1 | -7.62%
68 | CCOc1ncccc1C(=O)OC(C)C(=O)NC(=O)NC1CCCCC1 (centres unmarked) | -43.7%
69 | COC(=O)Nc1ccc(S(=O)(=O)N2CCCC(C(=O)N3CCOCC3)C2)cc1 (centres unmarked) | -7.43%
70 | CCC(C(=O)NCCc1c[nH]c2ccc(C)cc12)c1ccccc1 (centres unmarked) | 12.1%
71 | CN(Cc1ccccc1)c1ncc(C=O)s1 | 12.9%
72 | COC(=O)c1cccc(NC(=O)CSc2nc(C)cc(=O)[nH]2)c1 | 19.7%
73 | COc1ccc(OCC#CCN2CC(C)OC(C)C2)cc1.O=C(O)C(=O)O (centres unmarked) | -4.35%
74 | C=CCN(Cc1nc(-c2ccc(OC)c(OC)c2)oc1C)C1CCS(=O)(=O)C1 (centres unmarked) | 3.66%
75 | C=CCn1c(COc2ccc(OC)cc2)nnc1SCn1nnc2ccccc2c1=O | -27.1%
76 | O=C1c2[nH]nc(-c3ccccc3O)c2C(c2cccc(Cl)c2)N1CC1CCCO1 (centres unmarked) | -3.84%
77 | COc1ccc(CNC(=O)C(c2ccco2)N(Cc2ccccc2)C(=O)Cc2cccs2)cc1 (centres unmarked) | 18%
78 | Cc1ccc(S(=O)(=O)CCC(=O)Nc2nc(-c3cccnc3)cs2)cc1 | 22.3%
79 | COc1ccc2oc(-c3ccccc3)c(C(=O)N3CCOCC3)c2c1 | -8.44%
80 | NC(=O)CSc1nnc(Cc2ccc3c(c2)OCO3)o1 | 18.1%
81 | Cn1c(=O)c2c(nc(CN3CCc4ccccc4C3)n2CCCO)n(C)c1=O | -1.23%
82 | CC1=CC(C)(C)n2c(O)c(C3=NC(=S)NC3=O)c3cc(OC(=O)c4cccc5ccccc45)cc1c32 | 1.23%
83 | O=C(COc1ccc(NC(=O)c2cccs2)cc1)c1ccc(F)cc1 | 16.1%
84 | CCCc1ccc(OCCNC(=O)c2ccccc2Br)cc1 | -8.41%
85 | COc1ccc(S(=O)(=O)Nc2cc(C(=O)NCCCOC(C)C)ccc2N2CCOCC2)cc1 | -27.1%
86 | Cc1ccc(C)c(NC(=O)CN(C)C(=O)Cc2coc3cc(C)c(C)cc23)c1 | 11.8%
